Assay results as given in PubChem BioAssay AID624417 (National Center for Advancing Translational Sciences (NCATS), 2012).
Screen size: about 410,000 compounds; about 6,400 (1.6%) were called active. Inconclusive results, whose numbers are uncertain, are shown with a selection of clear calls. The call rests on the fitted dose curve; in most records, active means well fitted inhibition curve with a large enough effect; inconclusive means small, poorly fitted or top-dose-only effect; inactive means no such curve, though single readings can be large or run the other way. No potency is given beside an inconclusive call; the fits are too rough.
Further: nearly all actives have a fitted effect of over 55% in size.
Potency means the concentration at half of the fitted maximal effect; tags describe the fitted curve by direction and shape.

The molecules below were run against Glucagon-like peptide 1 receptor (Homo sapiens) (UniProt P43220) (assay: qHTS of GLP-1 Receptor Inverse Agonists (Inhibition Mode)). Details: HEK293 GLP-1R CRE-luciferase, luminescence, 24 h, GLP-1R form is constitutively active; series mostly up to 38.3 µM.
Chain of UniProt P43220 (P43220 whole entry, looked up): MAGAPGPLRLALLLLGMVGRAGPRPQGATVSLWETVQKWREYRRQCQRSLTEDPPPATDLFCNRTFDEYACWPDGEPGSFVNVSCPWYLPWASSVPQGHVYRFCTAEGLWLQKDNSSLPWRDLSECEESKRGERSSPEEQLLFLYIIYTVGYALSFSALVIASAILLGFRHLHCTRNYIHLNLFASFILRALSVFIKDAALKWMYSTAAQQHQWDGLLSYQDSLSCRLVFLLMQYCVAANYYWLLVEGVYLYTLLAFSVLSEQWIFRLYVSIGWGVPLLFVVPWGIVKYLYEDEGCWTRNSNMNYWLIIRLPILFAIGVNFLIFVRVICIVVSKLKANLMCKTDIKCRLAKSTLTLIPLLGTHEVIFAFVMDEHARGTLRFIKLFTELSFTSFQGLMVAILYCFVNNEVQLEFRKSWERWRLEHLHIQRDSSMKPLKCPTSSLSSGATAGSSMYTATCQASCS
How it was run: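 Inverse agonism was detected as reduced cAMP-driven luciferase luminescence after 24 h compound treatment. The cells were HEK293 clones expressing constitutively active human GLP-1R with the reporter. Reporter-only and GPR119 cell lines served as counterscreen controls.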
In the case of `Cc1cc(C(=O)NC(C)c2ccc3c(c2)OCO3)cs1` (centres undefined), the Potency was “inactive”. `Cc1cc(NC(=O)c2cc(C)on2)no1` was tested, and the Potency was “inactive”. `CN1CCN(CCCN2c3ccccc3Sc3ccc(C(F)(F)F)cc32)CC1` was tested, and the Potency was active: 8.91 µM. In the case of `CC(C)CC1C(=O)N(Cc2cn(CCC3OCCCO3)nn2)CCS(=O)(=O)N1Cc1ccc(-c2ccc(Cl)cc2)cc1` (centres undefined), the Potency was inconclusive [inhibitor, single point]. `O=C(CN1CCCC1)Nc1ccc(Br)cc1` was tested, and the Potency was “inactive”. For `O=C(CN1CCN(c2ncc(C(F)(F)F)cc2Cl)CC1)NCCNc1ncc(C(F)(F)F)cc1Cl`, the Potency was inconclusive [inhibitor, full curve, poor fit]. With `COc1ccc(CN(CC(O)COCc2ccccc2)S(=O)(=O)c2ccccc2Br)cc1` (centres undefined) the Potency was inconclusive [inhibitor, single point]. With `COc1ccc(N2CCN(C(=O)c3nc(-c4ccc(Cl)cc4)n4c3CCCCC4)CC2)cc1` the Potency was “inactive”. In the case of `O=C(C1CCCN(S(=O)(=O)c2cccs2)C1)N1CCc2ccccc2C1` (centres undefined), the Potency was inconclusive [inhibitor, partial curve, poor fit]. In the case of `COC(=O)C(C(=O)OC)c1ccccc1NS(=O)(=O)c1ccc(C)cc1`, the Potency was inconclusive [inhibitor, single point]. `O=C(CSc1ncnc2ccccc12)c1ccc2c(c1)OCCO2` was tested, and the Potency was inconclusive [inhibitor, single point]. For `Cc1ccccc1Cn1cc(NC(=O)c2noc(C(C)C)c2[N+](=O)[O-])cn1`, the Potency was inconclusive [inhibitor, single point]. In the case of `Cc1cccc(N2CCN(S(=O)(=O)c3ccc4[nH]c(=O)ccc4c3)CC2)c1C`, the Potency was inconclusive [inhibitor, single point]. In the case of `CON(c1nc(Cl)nc(N(C)C)n1)S(=O)(=O)c1ccccc1Cl`, the Potency was inconclusive [inhibitor, single point]. For `CCn1c(Cc2ccccc2)nnc1SCC(=O)Nc1nccs1`, the Potency was “inactive”. In the case of `CC(=O)N/C(=C/c1ccc2c(c1)OCO2)C(=O)Nc1ccccc1`, the Potency was “inactive”. `C=CCN1CCN(C(=O)CCCc2ccccc2)CC1` was tested, and the Potency was inconclusive [inhibitor, partial curve, poor fit]. For `Cc1ccc(C23CC4CC(CC(NC(=O)NC(C)(C)CO)(C4)C2)C3)cc1`, the Potency was inconclusive [inhibitor, single point]. `CC(C)C[C@H]1CN=C(Nc2ccccc2)N1CCCC1CCCC1` was tested, and the Potency was inconclusive [inhibitor, single point]. For `CCc1ccc(N2CC(C(=O)N/N=C/c3cc([N+](=O)[O-])ccc3O)CC2=O)cc1` (centres undefined), the Potency was inconclusive [inhibitor, partial curve, poor fit]. In the case of `C=CCNC(=O)c1sc(SC)cc1-c1ccc(Cl)cc1`, the Potency was inconclusive [inhibitor, partial curve, poor fit]. With `CC(NC(=O)CSc1ncn[nH]1)c1ccc(Cl)cc1Cl` (centres undefined) the Potency was inconclusive [inhibitor, single point]. `COc1cc(OC)cc(N(C(=O)C2COc3ccccc3O2)C(C(=O)NC2CCCCC2)c2ccc(O)cc2)c1` (centres undefined) was tested, and the Potency was inconclusive [inhibitor, partial curve, poor fit]. For `O=C(Nc1nc(-c2ccccn2)cs1)C1CCCC1`, the Potency was inconclusive [inhibitor, single point]. For `O=C(NCc1cccs1)C1Cc2c(-c3ccccc3Oc3ccccc3)ccnc2O1` (centres undefined), the Potency was inconclusive [inhibitor, partial curve, poor fit]. `Cc1nnc(NC(=O)c2ccc3ccccc3n2)s1` was tested, and the Potency was inconclusive [inhibitor, single point]. For `O=C1c2ccccc2NC(c2ccccc2)N1Cc1ccco1` (centres undefined), the Potency was inconclusive [inhibitor, single point]. In the case of `CC(C)c1ccc(-c2csc(NC(=O)c3cccs3)c2C(=O)O)cc1`, the Potency was inconclusive [inhibitor, partial curve]. In the case of `CCCCCCn1c(SCCOC)nc2c1c(=O)[nH]c(=O)n2C`, the Potency was “inactive”. In the case of `O=C(COc1ccc(Cl)cc1)N1CCN(c2cccc(C(F)(F)F)c2)CC1`, the Potency was inconclusive [inhibitor, partial curve, poor fit]. With `Cc1cccc(CSCC(=O)N2CCN(S(=O)(=O)c3ccccc3C#N)CC2)c1` the Potency was “inactive”. `NC(Cc1ccc(Cl)cc1)c1csc(Nc2cc(NCCCO)ncn2)n1` (centres undefined) was tested, and the Potency was inconclusive [inhibitor, single point]. `Cc1ccc(-n2ncc(C(=O)NCC3CCN(C4CCCC4)C3)c2C2CCN(C(=O)OC(C)(C)C)CC2)cc1` (centres undefined) was tested, and the Potency was inconclusive [inhibitor, partial curve, poor fit]. In the case of `CCc1ccccc1NC(=O)C1CCN(C2=NS(=O)(=O)C(c3ccc(C)c(C)c3)=C2C)CC1`, the Potency was “inactive”. In the case of `O=C(CN1CCN(Cc2ccccc2Cl)CC1)N/N=C/C=C\c1ccccc1[N+](=O)[O-]`, the Potency was inconclusive [inhibitor, partial curve]. `COc1ccc(-c2csc(Nc3ncccc3C)n2)cc1` was tested, and the Potency was inconclusive [inhibitor, single point]. For `Cc1nnc2sc(-c3ccc(N(C)C)cc3)nn2c1=O`, the Potency was inconclusive [inhibitor, partial curve, poor fit]. For `COc1cc(CNCCc2ccccc2)ccc1OCc1ccc(Cl)nc1`, the Potency was inconclusive [inhibitor, single point]. In the case of `C=C(C(=O)c1ccccc1)C(NC(C)(C)C)c1ccccc1` (centres undefined), the Potency was active: 5.01 µM. `CCC(=O)NC(c1ccc(OC)c(OC)c1)c1cc(Cl)c2cccnc2c1O` (centres undefined) was tested, and the Potency was inconclusive [inhibitor, single point]. In the case of `COc1ccc(CNC(=O)COC(=O)c2cc(-c3cccs3)nc3ccccc23)cc1OC`, the Potency was inconclusive [inhibitor, single point]. For `COc1ccc(-n2c(SCCC#N)nnc2-c2cc(Cl)ccc2OC)cc1Cl`, the Potency was inconclusive [inhibitor, partial curve]. With `CC1CCCC(NC(=O)CN(C)CC(=O)Nc2cccc(F)c2)C1C` (centres undefined) the Potency was inconclusive [inhibitor, single point]. `O=C(Nc1cccc(C(F)(F)F)c1)c1ccc(-n2cncn2)nc1` was tested, and the Potency was inconclusive [inhibitor, single point]. In the case of `COc1ccccc1N1CCN(C(=O)c2cc3c(s2)CCC3)CC1`, the Potency was inconclusive [inhibitor, single point]. `CC1OC(CCc2cccc(Cl)c2)Cc2[nH][nH]c(=O)c21` (centres undefined) was tested, and the Potency was “inactive”. For `O=C(O)CNC(=O)C(c1ccccc1)c1ccccc1`, the Potency was inconclusive [inhibitor, full curve, poor fit]. `COc1ccccc1NC(=S)NCc1ccc2c(c1)cc(C)n2C` was tested, and the Potency was inconclusive [inhibitor, single point]. In the case of `CCCCOc1ccc(C(=O)Nc2cc(C)c(OCC(=O)N3CCOCC3)c(C)c2)cc1`, the Potency was inconclusive [inhibitor, partial curve, poor fit]. For `Cc1ccc(OCc2ccc(-c3nc(C#N)c(N4CCC(C)CC4)o3)o2)cc1`, the Potency was inconclusive [inhibitor, single point]. With `COc1ccc(C2NC(=O)c3n[nH]c(C)c32)c(OC)c1` (centres undefined) the Potency was “inactive”. With `Cc1cc(C)cc(NC(=O)c2sc3nc(-c4cc5ccccc5oc4=O)[nH]c(=O)c3c2C)c1` the Potency was “inactive”. In the case of `C[C@H]1CN([C@@H](C)CO)C(=O)Cc2cc(NC(=O)CCC(F)(F)F)ccc2O[C@H]1CN(C)S(=O)(=O)c1ccc(Cl)cc1`, the Potency was inconclusive [inhibitor, full curve]. With `COc1ccc(NC(=S)Nc2ccc3nsnc3c2)cc1` the Potency was “inactive”. `CCC(CC)c1nnc(NC(=O)c2ccc(N3CCCCC3)c([N+](=O)[O-])c2)s1` was tested, and the Potency was inconclusive [inhibitor, partial curve, poor fit]. For `O=C(COC(=O)COc1ccc(Cl)cc1Cl)NC1CCS(=O)(=O)C1` (centres undefined), the Potency was inconclusive [inhibitor, full curve, poor fit]. `O=C(Nc1ccccc1C(=O)NC(Cc1ccccc1)C(=O)NC1CCCCC1)c1ccccc1` (centres undefined) was tested, and the Potency was inconclusive [inhibitor, partial curve, poor fit]. In the case of `COCCNC(=O)c1c(N)n(-c2cccc(C)c2)c2nc3ccccc3nc12`, the Potency was inconclusive [inhibitor, single point]. For `C[C@@H]1CN([C@@H](C)CO)C(=O)c2cc(NC(=O)Nc3ccc(F)cc3)ccc2O[C@@H]1CN(C)Cc1ccc(Oc2ccccc2)cc1`, the Potency was inconclusive [inhibitor, partial curve, poor fit]. In the case of `O=S(=O)(c1ccccc1)C1CC1(c1ccccc1)c1ccccc1` (centres undefined), the Potency was inconclusive [inhibitor, partial curve, poor fit]. For `Cc1ccc(CNC(=O)C2CCCN(S(=O)(=O)N3CC(C)CC(C)C3)C2)cc1` (centres undefined), the Potency was inconclusive [inhibitor, full curve, poor fit]. With `Cc1cccc(N2CCN(C(=O)c3oc(=O)c4ccccc4c3-c3ccccc3)CC2)c1C` the Potency was inconclusive [inhibitor, single point]. `CC(C)CNC(=O)c1c2c(nc3ccccc13)-c1ccccc1CC2` was tested, and the Potency was inconclusive [inhibitor, single point]. With `CN1C(=O)NC(c2ccccc2)C2=C1CN(c1cccc(C(F)(F)F)c1)C2=O` (centres undefined) the Potency was inconclusive [inhibitor, single point].
